Assay results from patent publication US20190169308A1 (ALLIGATOR BIOSCIENCE, published 2019).
Positions count from the first letter of the chain named.

T1: 5T4-Fc (human, UniProt Q13641 32-355, limits assumed)
T1 construct: obtained from Peter L. Stern, University of Manchester; also called h5T4-Fc; recombinant 5T4
T1 sequence (looked up): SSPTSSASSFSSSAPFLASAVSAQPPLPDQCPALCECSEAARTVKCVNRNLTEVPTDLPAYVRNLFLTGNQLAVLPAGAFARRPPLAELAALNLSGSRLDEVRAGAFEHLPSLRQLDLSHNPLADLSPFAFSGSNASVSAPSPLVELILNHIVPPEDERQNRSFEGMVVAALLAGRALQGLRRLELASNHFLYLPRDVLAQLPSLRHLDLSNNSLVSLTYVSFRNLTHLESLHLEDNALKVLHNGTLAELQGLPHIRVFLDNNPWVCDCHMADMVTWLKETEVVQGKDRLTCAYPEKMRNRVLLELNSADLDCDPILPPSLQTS

B1: 1202-1212 (bispecific antibody)
chain 1: EVQLLESGGGLVQPGGSLRLSCAASGFTFYGSSMSWVRQAPGKGLEWVSSIYYGSSGTYYADSVKGRFTISRDNSKNTLYLQMNSLRAEDTAVYYCARSYYGYFDYWGQGTLVTVSS[no letters for human IgG1 constant region]GGGGSGGGGSEVQLLESGGGLVQPGGSLRLSCAASGFTFSSYAMSWVRQAPGKGLEWVSYISSYGGYTSYADSVKGRFTISRDNSKNTLYLQMNSLRAEDTAVYYCARYHSGVLDYWGQGTLVTVSSGGGGSGGGGSGGGGSDIQMTQSPSSLSASVGDRVTITCRASQSISSYLNWYQQKPGKAPKLLIYAASSLQSGVPSRFSGSGSGTDFTLTISSLQPEDFATYYCQQYYYHYLLTFGQGTKLEIK
chain 2: DIQMTQSPSSLSASVGDRVTITCRASQSISSYLNWYQQKPGKAPKLLIYAASSLQSGVPSRFSGSGSGTDFTLTISSLQPEDFATYYCQQYYTVVPFTFGQGTKLEIKRTVAAPSVFIFPPSDEQLKSGTASVVCLLNNFYPREAKVQWKVDNALQSGNSQESVTEQDSKDSTYSLSSTLTLSKADYEKHKVYACEVTHQGLSSPVTKSFNRGEC
B2: 1212-1202 (bispecific antibody)
chain 1: EVQLLESGGGLVQPGGSLRLSCAASGFTFSSYAMSWVRQAPGKGLEWVSYISSYGGYTSYADSVKGRFTISRDNSKNTLYLQMNSLRAEDTAVYYCARYHSGVLDYWGQGTLVTVSS[no letters for human IgG1 constant region]GGGGSGGGGSEVQLLESGGGLVQPGGSLRLSCAASGFTFYGSSMSWVRQAPGKGLEWVSSIYYGSSGTYYADSVKGRFTISRDNSKNTLYLQMNSLRAEDTAVYYCARSYYGYFDYWGQGTLVTVSSGGGGSGGGGSGGGGSDIQMTQSPSSLSASVGDRVTITCRASQSISSYLNWYQQKPGKAPKLLIYAASSLQSGVPSRFSGSGSGTDFTLTISSLQPEDFATYYCQQYYTVVPFTFGQGTKLEIK
chain 2: B1 chain 2 with T93Y, V94H, V95Y, P96L, F97L
B3: 1212-1214 (bispecific antibody)
chain 1: EVQLLESGGGLVQPGGSLRLSCAASGFTFSSYAMSWVRQAPGKGLEWVSYISSYGGYTSYADSVKGRFTISRDNSKNTLYLQMNSLRAEDTAVYYCARYHSGVLDYWGQGTLVTVSS[no letters for human IgG1 constant region]GGGGSGGGGSEVQLLESGGGLVQPGGSLRLSCAASGFTFSSYAMSWVRQAPGKGLEWVSSIGSGGGYTGYADSVKGRFTISRDNSKNTLYLQMNSLRAEDTAVYYCARVGHPFDYWGQGTLVTVSSGGGGSGGGGSGGGGSDIQMTQSPSSLSASVGDRVTITCRASQSISSYLNWYQQKPGKAPKLLIYAASSLQSGVPSRFSGSGSGTDFTLTISSLQPEDFATYYCQQDAYPHTFGQGTKLEIK
chain 2: B1 chain 2 with T93Y, V94H, V95Y, P96L, F97L
B4: 1212-1204 (bispecific antibody)
chain 1: EVQLLESGGGLVQPGGSLRLSCAASGFTFSSYAMSWVRQAPGKGLEWVSYISSYGGYTSYADSVKGRFTISRDNSKNTLYLQMNSLRAEDTAVYYCARYHSGVLDYWGQGTLVTVSS[no letters for human IgG1 constant region]GGGGSGGGGSEVQLLESGGGLVQPGGSLRLSCAASGFTFSSYYMGWVRQAPGKGLEWVSGIGSYYGYTGYADSVKGRFTISRDNSKNTLYLQMNSLRAEDTAVYYCARAYYDYNYYYAYFDYWGQGTLVTVSSGGGGSGGGGSGGGGSDIQMTQSPSSLSASVGDRVTITCRASQSISSYLNWYQQKPGKAPKLLIYAASSLQSGVPSRFSGSGSGTDFTLTISSLQPEDFATYYCQQSVPHYPFTFGQGTKLEIK
chain 2: B1 chain 2 with T93Y, V94H, V95Y, P96L, F97L
B5: 1204-1212 (bispecific antibody)
chain 1: EVQLLESGGGLVQPGGSLRLSCAASGFTFSSYYMGWVRQAPGKGLEWVSGIGSYYGYTGYADSVKGRFTISRDNSKNTLYLQMNSLRAEDTAVYYCARAYYDYNYYYAYFDYWGQGTLVTVSS[no letters for human IgG1 constant region]GGGGSGGGGSEVQLLESGGGLVQPGGSLRLSCAASGFTFSSYAMSWVRQAPGKGLEWVSYISSYGGYTSYADSVKGRFTISRDNSKNTLYLQMNSLRAEDTAVYYCARYHSGVLDYWGQGTLVTVSSGGGGSGGGGSGGGGSDIQMTQSPSSLSASVGDRVTITCRASQSISSYLNWYQQKPGKAPKLLIYAASSLQSGVPSRFSGSGSGTDFTLTISSLQPEDFATYYCQQYYYHYLLTFGQGTKLEIK
chain 2: B1 chain 2 with Y91S, Y92V, T93P, V94H, V95Y
B6: 1200-1212 (bispecific antibody)
heavy: EVQLLESGGGLVQPGGSLRLSCAASGFTFSSYAMSWVRQAPGKGLEWVSGISGGGGGTYYADSVKGRFTISRDNSKNTLYLQMNSLRAEDTAVYYCARDVAYFDYWGQGTLVTVSS[no letters for human IgG1 constant region]GGGGSGGGGSEVQLLESGGGLVQPGGSLRLSCAASGFTFSSYAMSWVRQAPGKGLEWVSYISSYGGYTSYADSVKGRFTISRDNSKNTLYLQMNSLRAEDTAVYYCARYHSGVLDYWGQGTLVTVSSGGGGSGGGGSGGGGSDIQMTQSPSSLSASVGDRVTITCRASQSISSYLNWYQQKPGKAPKLLIYAASSLQSGVPSRFSGSGSGTDFTLTISSLQPEDFATYYCQQYYYHYLLTFGQGTKLEIK
light: DIQMTQSPSSLSASVGDRVTITCRASQSISSYLNWYQQKPGKAPKLLIYAASSLQSGVPSRFSGSGSGTDFTLTISSLQPEDFATYYCQQYYIPHTFGQGTKLEIKRTVAAPSVFIFPPSDEQLKSGTASVVCLLNNFYPREAKVQWKVDNALQSGNSQESVTEQDSKDSTYSLSSTLTLSKADYEKHKVYACEVTHQGLSSPVTKSFNRGEC
notes: Morrison format IgG-scFv

Molecular target: T1, 5T4-Fc
Test: dual ELISA: coated 5T4-Fc, detection with CD137-bio

| EC50 | Binder |
| --- | --- |
| 1.67 nM | B1 |
| 0.57 nM | B2 |
| 0.79 nM | B3 |
| 0.27 nM | B4 |
| 1.01 nM | B5 |
| 1.55 nM | B6 |
